Reference: PMC12420824, “Discovery of a selective alpha-kinase 1 inhibitor for the rare genetic disease ROSAH syndrome” (Nature Communications, 2025)

Tests used:
Assay in all cases: HotSpot kinase assay
[1] = target: T1, CAMK1a (Homo sapiens, UniProt Q14012); format: biochemical; settings: for IC50: 10-dose, ATP 10 µM
T1 construct: purchased Reaction Biology (assay service; panel enzyme)

[2] = target: T2, CAMK2g (Homo sapiens, UniProt Q13555); format: biochemical; settings: for IC50: 10-dose, ATP 10 µM
T2 construct: purchased Reaction Biology (assay service; panel enzyme)

[3] = target: T3, ZAP70 (Homo sapiens, UniProt P43403); settings: read-out: % Enzyme Activity (relative to DMSO control), 10 uM
T3 sequence (P43403 1-619): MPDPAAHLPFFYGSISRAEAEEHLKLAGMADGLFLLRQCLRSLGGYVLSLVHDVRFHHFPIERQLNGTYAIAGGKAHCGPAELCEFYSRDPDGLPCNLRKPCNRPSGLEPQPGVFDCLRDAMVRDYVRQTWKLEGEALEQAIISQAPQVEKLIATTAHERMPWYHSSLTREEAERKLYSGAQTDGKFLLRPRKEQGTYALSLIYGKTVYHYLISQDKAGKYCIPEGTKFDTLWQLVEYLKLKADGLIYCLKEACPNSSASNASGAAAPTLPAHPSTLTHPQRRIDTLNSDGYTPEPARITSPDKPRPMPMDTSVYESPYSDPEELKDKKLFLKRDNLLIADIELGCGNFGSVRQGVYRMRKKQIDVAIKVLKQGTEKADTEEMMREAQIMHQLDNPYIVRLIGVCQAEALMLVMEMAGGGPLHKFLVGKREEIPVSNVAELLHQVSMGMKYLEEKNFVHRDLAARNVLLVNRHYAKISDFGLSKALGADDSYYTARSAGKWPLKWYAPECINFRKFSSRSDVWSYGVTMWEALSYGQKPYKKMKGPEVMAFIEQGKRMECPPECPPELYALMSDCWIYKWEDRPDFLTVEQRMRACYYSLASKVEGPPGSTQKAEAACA

[4] = target: T4, DCAMKL1 (Homo sapiens, UniProt O15075); settings: read-out: % Enzyme Activity (relative to DMSO control), 10 uM
T4 sequence (O15075 1-740): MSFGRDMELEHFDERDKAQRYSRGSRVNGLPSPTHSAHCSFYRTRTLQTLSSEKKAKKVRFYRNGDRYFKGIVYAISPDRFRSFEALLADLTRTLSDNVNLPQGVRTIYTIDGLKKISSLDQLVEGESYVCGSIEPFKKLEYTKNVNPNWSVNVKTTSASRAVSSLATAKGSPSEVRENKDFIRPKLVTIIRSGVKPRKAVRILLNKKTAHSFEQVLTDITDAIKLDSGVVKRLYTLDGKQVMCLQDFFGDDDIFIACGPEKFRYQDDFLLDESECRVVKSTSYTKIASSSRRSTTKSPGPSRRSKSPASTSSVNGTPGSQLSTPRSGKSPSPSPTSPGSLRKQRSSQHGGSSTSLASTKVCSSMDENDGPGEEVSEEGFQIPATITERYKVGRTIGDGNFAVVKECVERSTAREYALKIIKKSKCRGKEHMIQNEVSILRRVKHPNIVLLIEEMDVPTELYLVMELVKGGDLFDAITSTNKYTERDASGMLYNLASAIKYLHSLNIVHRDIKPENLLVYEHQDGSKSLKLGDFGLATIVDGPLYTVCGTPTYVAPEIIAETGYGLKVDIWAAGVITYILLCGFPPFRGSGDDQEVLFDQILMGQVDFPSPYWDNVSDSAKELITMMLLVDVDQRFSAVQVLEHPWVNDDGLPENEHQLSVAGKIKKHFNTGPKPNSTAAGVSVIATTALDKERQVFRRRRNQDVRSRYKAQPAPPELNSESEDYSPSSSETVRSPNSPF

[5] = target: RET (Homo sapiens, UniProt P07949); settings: read-out: % Enzyme Activity (relative to DMSO control), 10 uM
[6] = target: CLK3 (Homo sapiens, UniProt P49761); settings: read-out: % Enzyme Activity (relative to DMSO control), 10 uM
[7] = target: T5, PLK4/SAK (Homo sapiens, UniProt O00444); settings: read-out: % Enzyme Activity (relative to DMSO control), 10 uM
T5 sequence (O00444 1-970): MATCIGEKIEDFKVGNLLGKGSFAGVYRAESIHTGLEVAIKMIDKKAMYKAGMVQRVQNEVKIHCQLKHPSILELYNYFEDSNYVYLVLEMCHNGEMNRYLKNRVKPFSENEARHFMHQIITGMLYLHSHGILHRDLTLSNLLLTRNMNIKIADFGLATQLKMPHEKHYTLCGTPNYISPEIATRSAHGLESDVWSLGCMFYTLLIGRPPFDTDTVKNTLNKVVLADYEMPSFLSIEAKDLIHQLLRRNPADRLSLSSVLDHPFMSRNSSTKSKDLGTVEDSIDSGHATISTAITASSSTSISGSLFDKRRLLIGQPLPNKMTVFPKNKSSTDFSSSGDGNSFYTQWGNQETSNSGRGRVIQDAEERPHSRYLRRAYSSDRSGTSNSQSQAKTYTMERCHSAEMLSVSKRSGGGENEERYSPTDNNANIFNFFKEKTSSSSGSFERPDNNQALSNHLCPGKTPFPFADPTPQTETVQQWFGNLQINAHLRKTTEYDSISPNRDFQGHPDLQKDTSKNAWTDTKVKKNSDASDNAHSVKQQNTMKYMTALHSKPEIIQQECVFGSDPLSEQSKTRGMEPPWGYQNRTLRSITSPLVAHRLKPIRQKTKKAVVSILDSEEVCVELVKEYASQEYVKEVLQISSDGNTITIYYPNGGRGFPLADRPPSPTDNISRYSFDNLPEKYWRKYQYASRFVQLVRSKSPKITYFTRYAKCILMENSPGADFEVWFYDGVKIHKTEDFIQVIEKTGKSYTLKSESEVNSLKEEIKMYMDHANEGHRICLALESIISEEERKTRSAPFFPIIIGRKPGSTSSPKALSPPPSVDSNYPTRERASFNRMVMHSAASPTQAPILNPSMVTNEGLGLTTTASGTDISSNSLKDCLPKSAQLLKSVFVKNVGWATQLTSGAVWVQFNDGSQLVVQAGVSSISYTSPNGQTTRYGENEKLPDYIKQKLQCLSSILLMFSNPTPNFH

[8] = target: MST3/STK24 (Homo sapiens, UniProt Q9Y6E0); settings: read-out: % Enzyme Activity (relative to DMSO control), 10 uM
[9] = target: CDK5/p35 (Homo sapiens, UniProt Q00535); settings: read-out: % Enzyme Activity (relative to DMSO control), 10 uM
[10] = target: PKAcg (Homo sapiens, UniProt P22612); settings: read-out: % Enzyme Activity (relative to DMSO control), 10 uM
[11] = target: ERK5/MAPK7 (Homo sapiens, UniProt Q13164); settings: read-out: % Enzyme Activity (relative to DMSO control), 10 uM
[12] = target: T6, Aurora A (Homo sapiens, UniProt O14965); settings: read-out: % Enzyme Activity (relative to DMSO control), 10 uM
T6 sequence (O14965 1-403): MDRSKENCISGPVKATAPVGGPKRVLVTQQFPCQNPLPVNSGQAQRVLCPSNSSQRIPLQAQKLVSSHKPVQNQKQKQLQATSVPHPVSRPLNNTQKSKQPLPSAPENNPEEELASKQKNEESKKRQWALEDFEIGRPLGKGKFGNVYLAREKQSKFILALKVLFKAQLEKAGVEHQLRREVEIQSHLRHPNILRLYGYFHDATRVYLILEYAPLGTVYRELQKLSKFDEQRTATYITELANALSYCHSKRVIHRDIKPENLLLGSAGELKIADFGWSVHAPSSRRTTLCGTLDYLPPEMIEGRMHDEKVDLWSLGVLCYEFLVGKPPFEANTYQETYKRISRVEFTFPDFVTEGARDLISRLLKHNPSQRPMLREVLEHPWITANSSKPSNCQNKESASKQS

[13] = target: T7, MST2/STK3 (Homo sapiens, UniProt Q13188); settings: read-out: % Enzyme Activity (relative to DMSO control), 10 uM
T7 sequence (Q13188 1-491): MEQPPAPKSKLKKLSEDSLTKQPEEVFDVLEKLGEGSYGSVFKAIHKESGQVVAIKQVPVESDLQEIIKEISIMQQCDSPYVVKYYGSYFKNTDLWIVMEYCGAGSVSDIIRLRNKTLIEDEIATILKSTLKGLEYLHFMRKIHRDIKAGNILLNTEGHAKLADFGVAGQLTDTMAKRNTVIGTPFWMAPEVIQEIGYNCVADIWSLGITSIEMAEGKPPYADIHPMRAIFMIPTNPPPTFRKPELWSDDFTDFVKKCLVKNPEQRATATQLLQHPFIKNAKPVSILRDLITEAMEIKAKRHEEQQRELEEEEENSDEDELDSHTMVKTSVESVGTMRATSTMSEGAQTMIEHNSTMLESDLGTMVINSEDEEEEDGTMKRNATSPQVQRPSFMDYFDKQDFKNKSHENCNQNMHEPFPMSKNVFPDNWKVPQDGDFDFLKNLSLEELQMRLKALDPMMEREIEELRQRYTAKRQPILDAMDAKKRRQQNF

[14] = target: T8, P38g (Homo sapiens, UniProt P53778); settings: read-out: % Enzyme Activity (relative to DMSO control), 10 uM
T8 sequence (P53778 1-367): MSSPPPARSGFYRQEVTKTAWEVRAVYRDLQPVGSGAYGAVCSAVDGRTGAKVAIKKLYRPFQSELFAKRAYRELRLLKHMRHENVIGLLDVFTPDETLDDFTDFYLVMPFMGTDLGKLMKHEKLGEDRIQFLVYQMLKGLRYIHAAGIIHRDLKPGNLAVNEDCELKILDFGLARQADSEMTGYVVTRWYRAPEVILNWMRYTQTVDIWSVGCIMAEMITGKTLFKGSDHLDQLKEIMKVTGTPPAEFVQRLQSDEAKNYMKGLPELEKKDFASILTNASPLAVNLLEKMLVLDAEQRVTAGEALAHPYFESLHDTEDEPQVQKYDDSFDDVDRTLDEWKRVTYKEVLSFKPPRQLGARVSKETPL

[15] = target: T9, GRK2 (Homo sapiens, UniProt P25098); settings: read-out: % Enzyme Activity (relative to DMSO control), 10 uM
T9 sequence (P25098 1-689): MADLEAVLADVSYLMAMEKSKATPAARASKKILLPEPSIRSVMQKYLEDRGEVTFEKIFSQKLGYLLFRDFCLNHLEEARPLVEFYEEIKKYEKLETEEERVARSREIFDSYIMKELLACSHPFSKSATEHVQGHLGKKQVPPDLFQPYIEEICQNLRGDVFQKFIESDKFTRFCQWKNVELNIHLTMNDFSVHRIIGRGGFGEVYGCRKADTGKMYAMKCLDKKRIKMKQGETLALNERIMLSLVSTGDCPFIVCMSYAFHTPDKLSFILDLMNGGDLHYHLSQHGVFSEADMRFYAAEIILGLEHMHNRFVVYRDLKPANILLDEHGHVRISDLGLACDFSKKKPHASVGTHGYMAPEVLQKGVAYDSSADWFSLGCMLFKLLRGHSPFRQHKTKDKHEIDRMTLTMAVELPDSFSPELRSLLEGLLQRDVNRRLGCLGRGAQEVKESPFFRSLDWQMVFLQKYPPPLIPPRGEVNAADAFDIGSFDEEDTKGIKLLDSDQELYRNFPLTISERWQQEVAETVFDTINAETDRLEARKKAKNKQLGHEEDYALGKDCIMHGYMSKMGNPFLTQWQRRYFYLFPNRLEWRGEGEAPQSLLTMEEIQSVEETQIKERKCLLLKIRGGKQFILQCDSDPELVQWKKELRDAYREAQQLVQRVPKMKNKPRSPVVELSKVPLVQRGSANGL

[16] = read-out: % Enzyme Activity (relative to DMSO control), 10 uM

C#C[C@@](C)(c1ccc(Cl)cc1)c1csc(NC(=O)c2c(F)cc(N3CCNCC3)cc2F)n1 (stereo in doubt) [DF-003]
IC50 ([1]; read-out: IC50): 4600 nM | IC50 ([1]; DF-003 IC50 (nM)): 4600 nM | remaining activity at 10 µM [1, 16]: 2.85% | IC50 ([2]; read-out: IC50): 3100 nM | IC50 ([2]; DF-003 IC50 (nM)): 3100 nM | remaining activity at 10 µM [2, 16]: 4.13% | remaining activity at 10 µM [3]: 74.6% | remaining activity at 10 µM [4]: 77.2% | remaining activity at 10 µM [5]: 84.5% | remaining activity at 10 µM [6]: 84.8% | remaining activity at 10 µM [7]: 86.5% | remaining activity at 10 µM [8]: 87.6% | remaining activity at 10 µM [9]: 91.8% | remaining activity at 10 µM [10]: 93.2% | remaining activity at 10 µM [11]: 98.1% | remaining activity at 10 µM [12]: 99.7% | remaining activity at 10 µM [13]: 109% | remaining activity at 10 µM [14]: 110% | remaining activity at 10 µM [15]: 111%

Where two headings read alike, the source gives them in different places.
